Experimental findings from ChEMBL document CHEMBL4888484, “Replenishing the malaria drug discovery pipeline: Screening and hit evaluation of the MMV Hit Generation Library 1 (HGL1) against asexual blood stage Plasmodium falciparum ,using a nano luciferase reporter read-out” (2022) are described below.

Hit rate of the full screen: of about 150,000 compounds, about 540 (0.36%) showed an effect of 50% or more. The list shows a part of the results.

The subject of the test is Plasmodium falciparum. Nature of the test: Primary screen in NF54 nanoGlo assay, in single point, at 2uM, 72h; a lower Z score goes with more inhibition. Particulars: timepoint 72 hour. The class given is functional, Erythrocyte.
Regarding `CCc1nn(C)c(OC)c1CNC(=O)CC#N`, the “% Inhibition” value came out at 1% and the Z score is -0.11.
As to `CNC(=O)CC(=O)OCC(=O)Nc1ccccc1C(F)(F)F`, the “% Inhibition” value stood at 32% and the Z score was -3.66.
For `Cc1ccc(OCCNC(=O)N2CCN(CC3CC3)[C@@H](CCO)C2)cc1C` the same measures were -14% and 2.33.
For the compound `COc1cc(OC)c(OC)cc1CNC(C)C`, the “% Inhibition” value stood at 31% and the Z score is listed as -4.5.
Regarding `Cc1cccc(C2(O)CCN(C(=O)CCc3ccccc3)CC2)c1C`, the “% Inhibition” value was found to be 3% and the Z score is reported as -0.36.
Take `CC(C)C[C@H](N)C(=O)N(C)Cc1ccccn1`: the “% Inhibition” value stood at 5% and the Z score is given as -0.62.
As to `Cc1ccc(-n2cc(-c3ccccc3)nc2NC(=O)CN(C(=O)c2ccco2)C(C)C)cc1C`, the “% Inhibition” value was determined as 3% and the Z score is listed as -0.49.
For `CCC(CO)(CO)NC(=O)C1CC1C1CC1` (centres undefined) the same measures were -9% and 1.04.
Consider `Cc1ccc(NC(=O)COc2cc(C)c(C)nn2)cc1`, for which the “% Inhibition” value is reported as -4% and the Z score was 0.6.
Take `CCN1CCC(NC(=O)c2c[nH]nn2)C1c1ccc(Cl)c(F)c1` (centres undefined): the “% Inhibition” value is 1% and the Z score is listed as -0.09.
Take `COCCOCC(=O)N1CCC(F)(C(=O)N2CCCC2)CC1`: the “% Inhibition” value is reported as -10% and the Z score is recorded as 1.33.
With `Cn1cncc1-c1cc(-c2ccccc2C(F)(F)F)nc(N)c1C#N`, the “% Inhibition” value stood at 15% and the Z score is -2.1.
For `CC(C)Cn1[nH]c(CC(=O)N2CCC=C(c3ccccn3)C2)cc1=O` the same measures were 0% and -0.08.
`CC(=O)NCC1CCN(CC(=O)N(Cc2ccccc2)C2CC2)CC1`: the “% Inhibition” value is given as -5% and the Z score stood at 0.6.
Take `CC[C@H](NS(=O)(=O)c1ccccc1)c1ncnn1CC`: the “% Inhibition” value is on record as 6% and the Z score is given as -1.13.
On to `CC(C)(NC(=O)c1cncc(-n2ccnn2)c1)C(F)(F)F`, for which the “% Inhibition” value is -4% and the Z score is given as 0.34.
Turning to `COc1ccc(NC(=O)C[C@H]2CCCCN(Cc3ccccc3)C2=O)c(C)c1`, the “% Inhibition” value was -13% and the Z score is 2.55.
As for `N#CC1(CS(=O)(=O)N2CCO[C@@H](CF)C2)CCCC1`, the “% Inhibition” value is on record as -7% and the Z score is 1.09.
As to `O=C(N[C@H]1CNC[C@@H]1O)c1csc(-c2ccc(C(F)(F)F)cc2)n1`, the “% Inhibition” value is listed as 15% and the Z score is on record as -2.04.
As for `COCC(=O)N(CCN1CCOCC1)CC(=O)N1N=C(c2ccccc2Cl)C[C@H]1c1ccc(OC)cc1`, the “% Inhibition” value is reported as -7% and the Z score turned out to be 1.21.
On to `CCCN1C[C@@H]2CC[C@H]1CN(C(=O)c1ccc(C(=O)N3CCOCC3)cc1)C2`, for which the “% Inhibition” value was 17% and the Z score is recorded as -2.13.
For the compound `COC[C@@H]1CCC[C@@H]1NC(=O)c1ccc(C)cc1O`, the “% Inhibition” value is -6% and the Z score turned out to be 1.03.
For the compound `Cc1ccccc1[C@@H](N)c1cccs1`, the “% Inhibition” value was -12% and the Z score is reported as 1.59.
For `c1ccc2c(c1)ncn2CCn1cnc2ccccc21` the same measures were -5% and 0.99.
As to `O=S(=O)(NCCc1n[nH]c(-c2ccc(Cl)cc2)n1)c1ccccc1`, the “% Inhibition” value is -8% and the Z score came out at 1.45.
On to `CC(C)CCC(=O)N1CCC(CN2C[C@@H](C(=O)N3CCOCC3)CC2=O)CC1`, for which the “% Inhibition” value was 9% and the Z score is given as -1.17.
Regarding `Cn1c(C(=O)NCC2CC2)cc2c(Cl)cccc21`, the “% Inhibition” value was -7% and the Z score is given as 0.96.
Consider `NC(=O)CC[C@H](NC(=O)OCc1ccccc1)C(=O)NCC1CCCCC1`, for which the “% Inhibition” value came to 27% and the Z score is reported as -3.69.
For `Cc1cc(NS(C)(=O)=O)ccc1N` the same measures were -6% and 0.71.
Turning to `Cc1ccc(S(=O)(=O)c2ncccc2CNC2CC2)cc1`, the “% Inhibition” value is -17% and the Z score is given as 1.93.
Regarding `O=C(C1CCC1)N1CCCc2ccccc21`, the “% Inhibition” value is recorded as 4% and the Z score was -0.66.
As for `O=C(c1cnn(-c2ccccc2)n1)N1CC(N2C(=O)C3CC=CCC3C2=O)C1` (centres undefined), the “% Inhibition” value is -4% and the Z score came to 0.4.
On to `Cc1cncc(C(=O)N[C@@H](C)CC(=O)c2ccc(F)cc2)c1`, for which the “% Inhibition” value is given as -5% and the Z score amounted to 0.76.
For `O=C(NCCc1c[nH]c2ccccc12)c1ccc2c(c1)OCCO2` the same measures were -29% and 3.42.
For the compound `O=C(CCNCC(F)(F)F)N1CCC[C@H](n2cccn2)C1`, the “% Inhibition” value was -1% and the Z score worked out at 0.25.
For `CC1(C(=O)N2CCC3(CCOC3)C2)CCOC1` (centres undefined) the same measures were 0% and -0.05.
Take `COc1c(Cl)cccc1CNC(=O)C1(c2cccnc2)CCCC1`: the “% Inhibition” value was -3% and the Z score worked out at 0.6.
On to `COC(=O)c1ccc(N(CCOC(C)(C)C)S(C)(=O)=O)cc1`, for which the “% Inhibition” value came to 0% and the Z score turned out to be 0.04.
For `CC(=O)c1cccc(CNC(=O)[C@H]2CCCOC2)c1`, the “% Inhibition” value is given as -1% and the Z score amounted to 0.13.
Turning to `Cc1nc(C)c(C(=O)N2CCCN(C)c3cc(F)ccc32)o1`, the “% Inhibition” value is listed as 0% and the Z score is 0.
With `NC(=O)C1CC(C(=O)NCC2COCCO2)=NN1c1ccccc1` (centres undefined), the “% Inhibition” value is -6% and the Z score came out at 1.15.
As to `O=C(NCN1CCCCC1)c1cccnc1`, the “% Inhibition” value stood at 0% and the Z score came out at 0.05.
For `Cc1noc(C2CCN(c3nnc(-c4c[nH]c5ccccc45)n3C)CC2)n1` the same measures were -5% and 0.88.
As to `CC(NC(=O)CN1CCCC1c1cnn(C)c1)c1ccco1` (centres undefined), the “% Inhibition” value is given as -1% and the Z score stood at 0.08.
For `Cc1cccnc1N1CCC(N2CCC[C@H](CO)C2)CC1` the same measures were -9% and 1.82.
Regarding `COCCOC[C@]1(CNC(=O)C2CCCC2)C[C@@H](O)[C@@H](O)C1`, the “% Inhibition” value is recorded as 17% and the Z score is -1.97.
Consider `CCS(=O)(=O)c1ccc(N2CCN(CC(C)C)C(=O)C2)cc1`, for which the “% Inhibition” value is reported as -7% and the Z score came to 0.68.
As for `CN(Cc1cccnc1)C[C@H]1CCCN(C(=O)Cc2ccc(Cl)s2)C1`, the “% Inhibition” value is on record as -1% and the Z score is on record as 0.05.
With `CCN(CC(C)(C)O)C(=O)N[C@@H](C)Cc1ccsc1`, the “% Inhibition” value is recorded as 2% and the Z score was -0.41.
`CCc1ccnc(CNc2ncc(Br)c(OC(C)(C)C)n2)c1`: the “% Inhibition” value is -7% and the Z score is on record as 1.06.
For `O=C(NCCOCCn1ccnc1)Nc1nccs1`, the “% Inhibition” value is 2% and the Z score is recorded as -0.34.
As to `COc1ccc(-c2nc(-c3nnn(Cc4ccc(F)cc4)c3C)no2)c(OC)c1`, the “% Inhibition” value is -16% and the Z score turned out to be 3.23.
Turning to `Cc1nnc(O)nc1NCCc1ccccc1`, the “% Inhibition” value is recorded as 5% and the Z score is -0.99.
With `CCC(C)N(C(C)CC)S(=O)(=O)c1ccccc1` (centres undefined), the “% Inhibition” value is on record as -11% and the Z score is reported as 1.35.
As for `Cc1cccc(Cl)c1NC(=O)Cn1c(=O)n(Cc2cccc(Cl)c2)c(=O)c2ccccc21`, the “% Inhibition” value was determined as 34% and the Z score was -3.83.
Regarding `CCC(=O)N1CC[C@H](C(=O)NS(=O)(=O)CC(C)C)C1`, the “% Inhibition” value was found to be 2% and the Z score is listed as -0.33.
For the compound `CC(C)Cn1cncc1Cn1ccnc1[C@H]1CCOC(C)(C)C1`, the “% Inhibition” value turned out to be 7% and the Z score is -0.93.
Take `CCOc1cc(CNC(=O)N2CC(O)C2)ccc1OC`: the “% Inhibition” value came out at 4% and the Z score is given as -0.75.
For `CCCn1cc(NC(=O)N[C@H]2CCCC[C@@H]2O)cn1`, the “% Inhibition” value was -5% and the Z score is reported as 0.79.
For `Cc1nnccc1NC(=O)NCCc1cccc2c1OCCO2` the same measures were -5% and 0.88.
Consider `Cc1ccc2c(c1)c1c(n2S(=O)(=O)c2ccc(C(C)(C)C)cc2)CCCN(C)C1`, for which the “% Inhibition” value stood at 67% and the Z score was -13.88.
For `Cc1nn(C)cc1-c1cc(-c2cn(C)nc2C)n(-c2ccc(Cl)c(Cl)c2)n1` the same measures were 32% and -3.57.
As for `Cc1cccc(C2(C(=O)N3CCCN(C(N)=O)CC3)CCCC2)c1`, the “% Inhibition” value is on record as -3% and the Z score stood at 0.49.
With `CCn1cnnc1NC(=O)[C@H](C)n1nnnc1C(C)(C)C`, the “% Inhibition” value is -8% and the Z score stood at 1.51.
For the compound `Cc1oc2ncnc(NCc3n[nH]c(=O)[nH]3)c2c1C`, the “% Inhibition” value is listed as -13% and the Z score is 1.85.
For `Cc1ccc([C@]2(C)NC(=O)N(Cc3ccccc3C)C2=O)o1`, the “% Inhibition” value is recorded as -2% and the Z score is 0.38.
In the case of `Cn1cccc1[C@@H](O)CCNC(=O)c1ccc(Br)o1`, the “% Inhibition” value worked out at 0% and the Z score stood at 0.04.
Regarding `COc1ccc(NC(=O)N2CC[C@@](F)(C(=O)NCc3ccccc3)C2)cc1`, the “% Inhibition” value is listed as -15% and the Z score was determined as 2.01.
For `Cc1[nH]nc(-c2ccsc2)c1NC(=O)c1ccc(F)cc1F` the same measures were 6% and -0.72.
Turning to `c1ccc(-c2ccc(OCc3cn4cccnc4n3)cc2)cc1`, the “% Inhibition” value is -11% and the Z score came to 1.54.
Take `CCc1cc(N2CCC(CCn3ccnc3C)CC2)n2nccc2n1`: the “% Inhibition” value is recorded as -2% and the Z score amounted to 0.21.
For `COc1cc(NC(=O)[C@@H]2C[C@H]3CC[C@@H]2O3)ccn1`, the “% Inhibition” value is 5% and the Z score is on record as -0.54.
For `COc1ccc(Cn2cc(F)ccc2=O)cn1`, the “% Inhibition” value is given as 1% and the Z score is given as -0.16.
Consider `COC(=O)c1cc(OCC(=O)Nc2ccc(OC)c(Cl)c2)c2cc(C)ccc2n1`, for which the “% Inhibition” value was -10% and the Z score is 1.79.
In the case of `CN1CCOCC1C(=O)NCC(NC(=O)C1COCCN1C)C1CCCCC1` (centres undefined), the “% Inhibition” value is 26% and the Z score is given as -2.96.
As for `CN(C)Cc1nc(C(=O)N[C@@H]2[C@@H]3CCO[C@@H]3[C@H]2N(C)C)cs1`, the “% Inhibition” value was -15% and the Z score was 2.26.
In the case of `C[C@H](NCc1cn(C)c(=O)n(C)c1=O)c1ccc(F)c(F)c1`, the “% Inhibition” value is 6% and the Z score is listed as -1.18.
`CC(C)[C@@H](c1ccc(F)cc1)N(C)CCCC1(C#N)CCOCC1`: the “% Inhibition” value is given as -2% and the Z score is 0.29.
With `CC(=O)Nc1ccc(-c2cc(C(=O)N[C@H](c3cccs3)C(C)C)c3ccccc3n2)cc1`, the “% Inhibition” value was -8% and the Z score was determined as 1.26.
For `C[C@H](NS(=O)(=O)N1CCCCC1)c1ccc(S(C)(=O)=O)cc1`, the “% Inhibition” value was -6% and the Z score is listed as 0.81.
For `Cc1ccc(-c2n[nH]c(C)c2NC(=O)CC(C)C)c(C)c1` the same measures were -15% and 2.05.
As for `CCC1(CC)CN(C(=O)c2n[nH]nc2C)CCO1`, the “% Inhibition” value was -10% and the Z score amounted to 0.94.
`CN1CCN(c2nc3c(c(N(C)C)n2)CN(C(=O)Cc2ccccc2)CC3)CC1`: the “% Inhibition” value is reported as 10% and the Z score is -1.25.
For `Cc1cccc(NC(=O)[C@H]2CCCN(C(=O)Cc3cccc4ccccc34)C2)c1C` the same measures were -5% and 0.85.
With `CCOCCN1CCC[C@H](c2nnc[nH]2)C1`, the “% Inhibition” value was -2% and the Z score amounted to 0.19.
Regarding `CC(C)c1cc(C(=O)N2CCCCC[C@H]2c2noc(-c3cnn(C)c3)n2)nn1C`, the “% Inhibition” value is reported as -13% and the Z score is 1.48.
As to `CN1CCN(c2ncnc(-c3ccc(F)c(F)c3)c2N)CC1`, the “% Inhibition” value is given as -12% and the Z score is on record as 1.6.
